Results on 48 compounds are retold here after PubChem BioAssay AID1963576 (National Center for Advancing Translational Sciences (NCATS), 2024).

About 60 (0.1%) of roughly 46,000 compounds were called active. About 3% were inconclusive and are not listed. Calls follow the shape of the dose curve; as a rule, active = well fitted inhibition curve with a large enough effect; inconclusive = small, poorly fitted or top-dose-only effect; inactive = no such curve, though single readings can be large or run the other way. The list shows a part of the results.

This experiment in a line: Primary qHTS assay for Inhibitors of ovarian cancer metastasis using an organotypic tumor microenvironment (TME) model. Also: nearly all actives have a fitted effect of over 65% in size.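 As to activity change, negative = inhibition: plate controls were DMSO wells for no effect and tomatine positive control wells for full effect.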 As to conditions: SKOV3ip1-GFP adhesion/invasion on 3D omental model, fluorescence; series mostly up to 45.8 µM; activity change, negative = inhibition: at the top concentration. The method, boiled down:
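qHTS, 4-pt dose (0.36-46 umol/L); SKOV3ip1-GFP, 1,200 cells/well, no FBS; primary omental fibroblast/mesothelial co-culture 48 h pre-grown; 2 h RT + 16 h 37 C; PBS wash, 4% PFA; GFP count 488/509 nm.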
Take `COc1ccc(C(=O)Nc2cc(S(=O)(=O)c3ccc(Cl)cc3)c(O)c(C)c2C)cc1`: the compound was classed as inactive. Take `Cc1cccc(C)c1NC(=O)Cn1c(=O)n(Cc2ccc3c(c2)OCO3)c(=O)c2oc3ccccc3c21`: the “activity change, negative = inhibition” value was inactive: 6.87%. Still for that read-out and setting: the same measure for `CCOc1cc(C(=O)Nc2ccc(-c3nc4ccccc4s3)cc2Cl)cc(OCC)c1OCC`: inactive: 2.68%; for `CC(C)(C)c1ccc(C(=O)NCC(c2cccs2)S(=O)(=O)c2cccs2)cc1` (stereo not drawn): inactive: -2.7%. On the same count and under the same terms, the same measure for `CCc1ccc(-n2nc3cc(C)c(NC(=O)c4cc(OC)cc(OC)c4)cc3n2)cc1`: inactive: 1.06%. For `Cc1ccc(CNC(=O)c2c(C)oc3nc(C)nc(N4CCOCC4)c23)cc1`, the outcome was inactive. As to `Cc1cc(C)c2c(CC(=O)Nc3ccc(S(=O)(=O)N4CCCCC4)cc3)coc2c1`, the “activity change, negative = inhibition” value was inactive: -7.17%. On the same count and under the same terms, the same measure for `O=C(c1cc2ccccc2oc1=O)N1CCN(c2ccc(F)cc2)CC1`: inactive: -8.99%; for `COc1ccccc1CCNC(=O)Cc1c(C)c2cc3c(C)coc3cc2oc1=O`: inactive: 0.301%.

`CC(C)c1ccc2oc3nc(N)c(C(=O)O)cc3c(=O)c2c1`: the “activity change, negative = inhibition” value was inactive: 7.88%.

As for `Cc1cccc(CSCc2ccc(C(=O)NCCc3ccccc3)o2)c1`, the “activity change, negative = inhibition” value is inactive: 8.96%. Same read-out and setting: the same measure for `CCOC(=O)c1ccc(Nc2c(-c3cccc(O)c3)nc3nc[nH]n23)cc1`: inactive: 2.93%. Same read-out and setting: the same measure for `N#Cc1c(-n2ncnc2-c2ccccc2C(F)(F)F)sc2c1CCCCC2`: inactive: -21.5%; for `CC(=O)c1ccc(NC(=O)CN(C)S(=O)(=O)c2cc3c(cc2Cl)NC(=O)CO3)cc1`: inactive: -2.89%. On the same count and under the same terms, the same measure for `CCN(CC)CCN(C(=O)c1ccco1)c1nc2cc(C)cc(C)c2s1`: inactive: 0.175%. Consider `Nc1c(-c2nc(-c3ccccc3)no2)nnn1CC(=O)Nc1cccc(F)c1`, for which the “activity change, negative = inhibition” value was inactive: 5.92%.

Take `CCOc1cc(-c2ccc(OC(=O)c3ccc(C)cc3)c(OC)c2)cc(=O)c2c(C)oc(C)c12`: the compound was classed as inactive. For `Cc1ccc(C)c(Cn2c(=O)n(Cc3ccccc3)c(=O)c3c2c2cc(C)ccc2n3C)c1`, the call was inactive. As to `CCOc1ccc(S(=O)(=O)NCCc2csc3nc(-c4ccc(F)cc4)nn23)cc1`, the result was inactive. For `COc1cccc(C2=NS(=O)(=O)N(C)C(C(=O)Nc3ccccc3SC)=C2)c1`, the “activity change, negative = inhibition” value is inactive: -0.459%. Same read-out and setting: the same measure for `O=C(NCc1cccs1)c1ccc(CSc2nc3ccncc3n2Cc2ccccc2)cc1`: inactive: -12.8%. On to `CC1CCC(NC(=O)c2ccc(CS(=O)(=O)c3cccc(C(F)(F)F)c3)o2)CC1` (stereo not drawn), for which the call was inactive. On to `COc1cc(NC(=O)CNS(=O)(=O)c2cccs2)cc(OC)c1OC`, for which the “activity change, negative = inhibition” value is inactive: 19.2%. Consider `COc1ccc(CNC(=O)Cn2c(=O)cc(C)c3c(C)nn(-c4cccc(Cl)c4C)c32)cc1`, for which the call was inactive. Take `Fc1ccc(CSc2nc(NCc3ccccc3)c3ccccc3n2)cc1`: the “activity change, negative = inhibition” value is inactive: 6.59%. Regarding `COc1ccc(-c2cc(C(=O)Nc3cccc(O)c3)on2)cc1OC`, the “activity change, negative = inhibition” value was inactive: 1.84%. `Cc1ccc(Cl)cc1N1CCN(CCCNC(=O)C2COc3ccccc3C2)CC1` (stereo not drawn): the “activity change, negative = inhibition” value was inactive: -3.15%. On to `Cc1ccc(C(=O)Nc2ccc(S(=O)(=O)Nc3onc(C)c3C)cc2)cc1`, for which the outcome was inactive. Take `CCOC(=O)c1ccc(NC(=O)Cn2c(=O)cc(C(F)(F)F)c3c(C)nn(C)c32)cc1`: the “activity change, negative = inhibition” value was inactive: 0.329%. On the same count and under the same terms, the same measure for `CCN(CC)c1ccc2cc(-c3nc(-c4ccccc4F)no3)c(=O)oc2c1`: inactive: -1.13%. On the same count and under the same terms, the same measure for `Cc1cc(C)c(S(=O)(=O)Nc2ccc(-c3ccc(N4CCCCCC4)nn3)cc2)cc1C`: inactive: -0.348%.

For the compound `COc1cc(NC(=O)NCCN2CCN(c3ccccc3)CC2)cc(OC)c1OC`, the outcome was inactive.

As for `Cc1ccc(N(C)C(=O)CCS(=O)(=O)c2cc3c(cc2Cl)NC(=O)CO3)cc1`, the outcome was inactive.

For the compound `COc1ccc(C(=O)NCCn2cc(SC(C)c3ccccc3)c3ccccc32)cc1OC` (stereo not drawn), the compound was classed as inactive. With `Cc1cccc(C(=O)Nc2ccc(S(=O)(=O)N(Cc3ccccc3)c3ccccc3)cc2)c1`, the compound was classed as inactive. With `Cc1cccc(NC(=O)CSc2nc3c(sc4ccccc43)c(=O)n2CCCC(=O)NC2CCCC2)c1`, the “activity change, negative = inhibition” value is inactive: -5.01%. Take `C[C@@H]1CC=CC=CC=CC=C[C@@H](O[C@@H]2O[C@H](C)[C@@H](O)[C@H](N)[C@H]2O)C[C@@H]2O[C@](O)(C[C@@H](O)C[C@@H]3O[C@@H]3C=CC(=O)O1)C[C@H](O)[C@@H]2C(=O)O`: the “activity change, negative = inhibition” value was inactive: 15.7%.

Take `COc1cccc(NC(=O)c2oc3ccccc3c2NC(=O)c2cc3ccccc3o2)c1`: the “activity change, negative = inhibition” value is inactive: -12%. Still for that read-out and setting: the same measure for `CCOC(=O)C1CCCN(c2ncnc3c2nnn3C)C1` (stereo not drawn): inactive: -6.02%. Consider `Cc1cccc(N2CCN(C(=O)C3CCN(c4ncnc5c4nc4n5CCCCC4)CC3)CC2)c1C`, for which the result was inactive. For the compound `COc1cccc([C@@H](C)NCCCc2ccccc2Cl)c1`, the “activity change, negative = inhibition” value is inactive: -14.5%. As for `CC(=O)c1ccc(NC(=O)Cn2c(=O)nc(-c3ccccc3)c3cc(Cl)ccc32)cc1`, the “activity change, negative = inhibition” value was inactive: -7.65%. The same measure, in the same setting: the same measure for `O=C(Nc1cccc(C(F)(F)F)c1)c1ccc2snnc2c1`: inactive: 15.4%. As to `CCc1ccc(NC(=O)Nc2nnc(N(C)C3CCCCC3)s2)cc1`, the “activity change, negative = inhibition” value is inactive: 9.99%. Same read-out and setting: the same measure for `CCOc1ccc(CCNC(=O)c2cc3c(s2)-c2c(C)cccc2OC3)cc1`: inactive: -11%. Turning to `O=C(CN1C(=O)CCc2cc(S(=O)(=O)N3CCOCC3)ccc21)NCc1ccc(Cl)cc1`, the compound was called inactive. Turning to `CCOc1ccc(-c2nnc(SCC(=O)c3ccc(Br)cc3)n2-c2ccccc2)cc1`, the “activity change, negative = inhibition” value is inactive: -5.64%. For the compound `O=S(=O)(Nc1ccc(F)cc1F)c1ccc(-n2cccn2)cc1`, the “activity change, negative = inhibition” value is inactive: 2.3%.
